This test concerns NS5A and HCV core proteins. Kind of test: Immunoblot of NS5A and HCV core proteins in Huh7 replicon cells. As to conditions: 0.5 μM and 1 μM, 48 hours.

SMILES strings stand for the structures.

As for `CCN(CCO)CCCC(C)Nc1ccnc2cc(Cl)ccc12` (stereo not shown) [HCQ, 2-[[4-[(7-chloro-4-quinolinyl)amino]pentyl]ethylamino]ethanol, reference compound], the “HCV core and NS5A protein level” value is “decrease both HCV core and NS5a protein level in a dose-dependent manner”.

The values above are taken from patent publication US8987302B2, “Treatment of hepatitis C virus related diseases using hydroxychloroquine or a combination of hydroxychloroquine and an anti-viral agent” (Panmed Ltd., priority 2010, dated 2015).
